From PubChem BioAssay AID624417 (National Center for Advancing Translational Sciences (NCATS), 2012)
Among all 410,000 compounds or so, about 6,400 (1.6%) were called active. Inconclusive results, whose numbers are uncertain, are shown with a selection of clear calls. The call rests on the fitted dose curve; in most records, active means well fitted inhibition curve with a large enough effect; inconclusive means small, poorly fitted or top-dose-only effect; inactive means no such curve, though single readings can be large or run the other way. A potency beside an inconclusive call is a rough fit, not a confirmed value.

The compounds below were run against Glucagon-like peptide 1 receptor (Homo sapiens) (UniProt P43220) (assay: qHTS of GLP-1 Receptor Inverse Agonists (Inhibition Mode)). Details: HEK293 GLP-1R CRE-luciferase, luminescence, 24 h, GLP-1R form is constitutively active; activity change, negative = inhibition: at 38.3 µM (top of the series) unless noted.
Sequence of UniProt P43220 (P43220 whole entry, looked up): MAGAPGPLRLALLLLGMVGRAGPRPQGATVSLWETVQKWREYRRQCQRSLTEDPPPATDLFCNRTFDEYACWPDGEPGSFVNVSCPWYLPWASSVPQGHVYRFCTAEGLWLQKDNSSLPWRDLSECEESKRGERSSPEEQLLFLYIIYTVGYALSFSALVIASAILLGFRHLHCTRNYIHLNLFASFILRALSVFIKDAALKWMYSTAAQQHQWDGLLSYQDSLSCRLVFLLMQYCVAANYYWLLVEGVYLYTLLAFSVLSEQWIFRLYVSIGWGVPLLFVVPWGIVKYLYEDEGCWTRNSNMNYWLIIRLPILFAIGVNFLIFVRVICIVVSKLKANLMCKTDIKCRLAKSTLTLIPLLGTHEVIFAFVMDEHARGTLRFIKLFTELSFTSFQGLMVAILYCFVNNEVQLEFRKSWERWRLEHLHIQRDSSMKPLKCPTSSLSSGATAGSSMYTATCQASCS
How it was run: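 Inverse agonism was detected as reduced cAMP-driven luciferase luminescence after 24 h compound treatment. The cells were HEK293 clones expressing constitutively active human GLP-1R with the reporter. Reporter-only and GPR119 cell lines served as counterscreen controls.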
Further: nearly all actives have a fitted effect of over 55% in size.
On the % scale 0 is the no-effect control and ±100 the full control effect; potency means the concentration at half of the fitted maximal effect; tags describe the fitted curve by direction and shape.

Potency, inconclusive:
CC1CCCCC12NC(=O)N(CC(=O)c1ccc(Cl)s1)C2=O (stereo not drawn) 8.91 µM [inhibitor, partial curve, poor fit]
O=C(NCCCC1CCCC1)C1CCC(=O)N(Cc2cccc(C(F)(F)F)c2)C1 (stereo not drawn) 1.58 µM [inhibitor, full curve, poor fit]
CC1(C(=O)Nc2cnc3ccccc3c2)CCN1Cc1ccc2ccccc2c1 (stereo not drawn) 28.2 µM [inhibitor, single point]
Clc1cccc(-n2ncc3c(NC4CCCCC4)ncnc32)c1 7.08 µM [inhibitor, partial curve, poor fit]
COc1cccc(/C=C/C(=O)Nc2ccc3c(c2)OCCO3)c1 28.2 µM [inhibitor, single point]
CCOc1cccc(C2/C(=C(/O)c3ccc4c(c3)CC(C)O4)C(=O)C(=O)N2CCCn2ccnc2)c1 (stereo not drawn) 3.16 µM [inhibitor, full curve, poor fit]
CCOc1ccc2oc(C(=O)NCc3ccccc3CN3CCCC3)c(C)c2c1 7.08 µM [inhibitor, partial curve, poor fit]
CCCOP(=O)(OCCC)c1c([N+](=O)[O-])cc(C(F)(F)F)cc1[N+](=O)[O-] 1.78 µM [inhibitor, full curve, poor fit]
Fc1ccc2[nH]c3c(N4CCN(Cc5ccc6c(c5)OCO6)CC4)ncnc3c2c1 12.6 µM [inhibitor, partial curve, poor fit]
O=C(Nc1ccc2c(c1)CCCN2C(=O)c1cccs1)c1cccc(C(F)(F)F)c1 6.31 µM [inhibitor, partial curve, poor fit]
O=C(COc1ccccc1)Nc1cccc2c1CCCC2 15.8 µM [inhibitor, single point]
O=C1COc2ccccc2N1Cc1c(F)cccc1Cl 28.2 µM [inhibitor, single point]
O=C(CCN1C(=O)NC2(CCCC2)C1=O)Nc1ccc(-c2nc3ccccc3s2)cc1 11.2 µM [inhibitor, partial curve, poor fit]
CCCCNC(=O)c1nc(C2CCNCC2)oc1-c1ccccc1 25.1 µM [inhibitor, partial curve, poor fit]
S=c1[nH]nc(-c2ccccn2)n1/N=C/c1ccc(-c2ccccc2Br)o1 7.94 µM [inhibitor, partial curve, poor fit]
COc1ccc(-n2c(SCC(=O)Nc3nc(C)cs3)nnc2-c2ccoc2C)cc1 14.1 µM [inhibitor, partial curve, poor fit]
O=C(Nc1ccc(N2CCCC2)c(S(=O)(=O)Nc2cccc(C(F)(F)F)c2)c1)c1cccs1 3.98 µM [inhibitor, full curve]
COc1ccc(-n2c(SCC(=O)N3CCN(c4ccccc4)CC3)nc3c(c2=O)SCC3)cc1 0.501 µM [inhibitor, full curve, poor fit]
CCOC(=O)c1[nH]c2ccccc2c1NC(=O)c1ccccc1OCC 0.891 µM [inhibitor, full curve, poor fit]
CN(C)C(=O)C(OC(=O)c1ccc2c(c1)CCCC2)c1ccccc1 (stereo not drawn) 14.1 µM [inhibitor, partial curve, poor fit]
Cc1cccc(C(=O)Nc2cccc(C(=O)N/N=C/c3ccc4c(c3)OCO4)c2)c1 28.2 µM [inhibitor, single point]
Cc1noc(C)c1-c1ccc(C(=O)NCc2ccc(Cl)cc2)c2occc12 28.2 µM [inhibitor, single point]
Cc1ccc(S(=O)(=O)N(CC(=O)Nc2ccc(C(C)C)cc2)Cc2ccccc2)cc1 8.91 µM [inhibitor, partial curve, poor fit]
COc1cc(C(=O)NC2CCN(C)CC2)ccc1Nc1ncc2c(n1)N(C1CCCCC1)CCC(=O)N2C 0.316 µM [inhibitor, full curve, poor fit]
CSC1=NCCN1C(=O)C12CC3CC(CC(C3)C1)C2 7.08 µM [inhibitor, partial curve, poor fit]
NNC(=O)C(=O)Nc1ccc(O)cc1 4.47 µM [inhibitor, full curve, poor fit]
CSCCC(NS(=O)(=O)c1ccc2c(c1)OCCO2)C(=O)N(C)Cc1ccc(F)cc1 (stereo not drawn) 28.2 µM [inhibitor, single point]
Cc1nc(NCCc2ccccc2F)c(C#N)c(C)c1[N+](=O)[O-] 1.41 µM [inhibitor, full curve, poor fit]
COC(=O)C1=C(C)N=C2SC(C#N)=C(N)N2C1c1cccc(OC)c1 (stereo not drawn) 10 µM [inhibitor, partial curve]
Cc1ccccc1Cn1cc(CCC(=O)NC(C)c2ccccc2)c2ccccc21 (stereo not drawn) 10 µM [inhibitor, partial curve, poor fit]
CCC(C)c1ccc(OCC(=O)Nc2cccc(-c3nc4ncccc4o3)c2)cc1 (stereo not drawn) 28.2 µM [inhibitor, single point]

Potency, active:
O=C(Nc1ccccc1F)c1nc(S(=O)(=O)Cc2ccccc2F)ncc1Cl 11.2 µM

Activity change, negative = inhibition, inactive:
O=C(O)c1cc(N2N=C(C(F)(F)F)/C(=C/C=C/c3ccco3)C2=O)ccc1Cl -20.3%
Cc1nc2ccc(Br)cn2c1NC(C)(C)C 4.01%
COc1ccc(CNC(=O)CN2C(=O)c3ccccc3S2(=O)=O)cc1 -3.6%
Cc1cccc(NC(=O)CSc2nc(=O)n(CCN3CCOCC3)c3c2CCCC3)c1C 21.6%
Cc1ccccc1NC(=O)CCC(=O)N1CCSc2ccccc21 -24.4%
CC(C)(C)c1ccc(S(=O)(=O)N2CCC(c3nc4ccc(Cl)cc4[nH]3)CC2)cc1 -0.424%
